Results as given in paper PMC4336329 (PLoS ONE, 2015).
Out of some 310,000 compounds screened, about 14,000 (4.5%) showed an effect of 50% or more. The effect is printed as a negative number. This is one part of the list.

target: human ether-à-go-go-related gene (hERG) potassium channel (human, UniProt Q12809); assay: primary screen, population patch clamp on CHO cells stably expressing hERG
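Further: peak tail current of the secondary pulse compared with the same well before compound.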

Sequence of human ether-à-go-go-related gene (hERG) potassium channel (Q12809 whole entry, looked up): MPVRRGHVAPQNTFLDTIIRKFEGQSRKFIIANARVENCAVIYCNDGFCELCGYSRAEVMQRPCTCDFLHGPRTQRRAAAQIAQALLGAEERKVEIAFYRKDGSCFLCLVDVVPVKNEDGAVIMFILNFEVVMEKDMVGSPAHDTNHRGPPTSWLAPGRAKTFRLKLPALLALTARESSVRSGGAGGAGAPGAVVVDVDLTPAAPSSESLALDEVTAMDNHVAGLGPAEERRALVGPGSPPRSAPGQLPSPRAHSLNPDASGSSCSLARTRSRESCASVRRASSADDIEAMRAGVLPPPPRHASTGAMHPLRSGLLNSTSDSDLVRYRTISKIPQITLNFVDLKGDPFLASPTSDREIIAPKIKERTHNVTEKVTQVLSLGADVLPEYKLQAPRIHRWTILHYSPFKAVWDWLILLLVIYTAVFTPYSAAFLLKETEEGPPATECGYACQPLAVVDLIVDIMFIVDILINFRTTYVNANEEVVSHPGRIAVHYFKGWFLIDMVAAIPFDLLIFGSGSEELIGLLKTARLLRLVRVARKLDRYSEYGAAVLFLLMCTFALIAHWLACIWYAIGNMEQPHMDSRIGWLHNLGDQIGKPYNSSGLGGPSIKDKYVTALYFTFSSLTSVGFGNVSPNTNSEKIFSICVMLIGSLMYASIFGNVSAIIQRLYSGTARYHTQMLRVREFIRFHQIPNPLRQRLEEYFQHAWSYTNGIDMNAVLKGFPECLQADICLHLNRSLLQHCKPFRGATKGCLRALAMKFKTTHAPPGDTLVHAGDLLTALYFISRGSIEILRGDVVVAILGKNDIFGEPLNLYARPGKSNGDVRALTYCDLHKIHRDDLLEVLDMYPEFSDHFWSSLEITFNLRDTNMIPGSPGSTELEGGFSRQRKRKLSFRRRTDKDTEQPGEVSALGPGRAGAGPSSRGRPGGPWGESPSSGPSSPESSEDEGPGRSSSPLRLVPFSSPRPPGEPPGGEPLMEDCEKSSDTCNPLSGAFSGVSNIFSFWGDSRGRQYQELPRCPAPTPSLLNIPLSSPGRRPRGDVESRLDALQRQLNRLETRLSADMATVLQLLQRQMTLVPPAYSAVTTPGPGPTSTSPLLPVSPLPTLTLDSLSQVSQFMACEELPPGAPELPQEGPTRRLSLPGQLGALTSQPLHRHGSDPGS

SMILES | hERG current change (%, negative = inhibition) at 10uM [%]
OC(CCN1CCOCC1)(c1ccc(Cl)cc1)C1CCCCC1 (centres unmarked) | -18.6
FC(F)(F)c1nnc2c3ccccc3c(Cl)nn12 | 21.6
CC(C)OC(=O)Nc1ccc2c(c1)N(C(=O)N1CCN(C)CC1)c1ccccc1CC2.O=C(O)C(=O)O | -17.9
COc1cccc(CN2CCNC(=O)C2CC(=O)NCc2cn3ccccc3n2)c1OC (centres unmarked) | 32
O=C(N1CCOCC1)N(Cc1ccco1)CC1CCCO1 (centres unmarked) | -48.5
Cc1onc(-c2c(Cl)cccc2Cl)c1C(=O)NCCN1CCOCC1 | 9.36
Cn1c(SCC(=O)NCC2CCCO2)ncc(C(=O)Nc2ccc(Cl)cc2)c1=O (centres unmarked) | -36.3
O=C(Cn1nnnc1CN1CCOCC1)N1CCC(c2cccc(Cl)c2)C1 (centres unmarked) | 1.15
O=C(Nc1ccccc1)c1nccn1Cc1ccc(F)cc1 | -10.9
CC(=O)N1N=C(c2ccccc2)CC1c1cn(Cc2ccccc2)c2ccccc12 (centres unmarked) | -13.6
Cc1ccc(OCC(=O)Nc2ccc(N3CCN(S(C)(=O)=O)CC3)cc2)c(C)c1 | 10.9
Cc1ccc(N(C(=O)CNC(=O)c2cccs2)C(C(=O)NC2CCCC2)c2ccncc2)cc1 (centres unmarked) | 9.41
O=C(CSc1nnc(-c2cccs2)n1C1CC1)NC1CCS(=O)(=O)C1 (centres unmarked) | -6.43
O=C(NCCN1CCOCC1)[C@H](Cc1ccccc1)N1C(=O)c2ccccc2C1=O | -2.06
O=C(NNC(=O)c1csc(N2CCOCC2)n1)c1cccnc1 | 4.3
CCN1CCN(CCNC(=O)c2ccc3nc(-c4cccc(C)c4)c(-c4cccc(C)c4)nc3c2)CC1 | -73.9
CC(=O)c1ccc(NC(=O)C(C)OC(=O)c2ccc(NS(=O)(=O)c3ccc(F)c(F)c3)cc2)cc1 (centres unmarked) | -6.98
Nc1nonc1-n1nnc(C(=O)N/N=C/c2c[nH]c3ccccc23)c1-c1ccccc1 | 12.5
COc1ccc2nc(COC(=O)c3ccco3)c(C(C)=O)[n+]([O-])c2c1 | 1.79
COc1ccc(CCNC(=O)C(C)SCc2ccccc2)cc1 (centres unmarked) | -12.8
O=C(O)C(=O)O.O=C(c1ccncc1)N1CCN(C2CCC(c3ccccc3)CC2)CC1 (centres unmarked) | -63.4
CCOc1ccc(C(=O)OCC(=O)NCc2ccccc2)cc1OCC | -14.2

SMILES | hERG current change (%, negative = inhibition) at 10uM [%]
Cc1ccc(NC(=O)COC(=O)c2ccco2)cc1C | 2.35
COc1ccc(C)cc1-n1nnnc1SCC(=O)c1cc(C)n(Cc2ccco2)c1C | -9.73
CC1CN(C(=O)N(C)C)CCN1C(=O)N(C)C (centres unmarked) | 9.65
N#C/C(=C/c1ccc(CNC(=O)C(=O)Nc2cc(Cl)cc(Cl)c2)o1)C(=O)NCc1cccnc1 | -0.368
CCOc1ccccc1NC(=O)C1COc2ccccc2O1 (centres unmarked) | 14.4
Cc1cc2n(n1)C(c1sccc1C)Nc1ccccc1-2 (centres unmarked) | -15.9
CN(C)c1ncc(C2=C(Cl)C(=O)C(N3CCCC3)=C(Cl)C2=O)s1 | 0.566
O=C(Nc1cccc(F)c1)C1CCN(C(=O)c2ccco2)CC1 | -26.4
C=CCn1c(CSc2nnc(-c3ccccc3)n2C)n[nH]c1=S | 16.7
COc1cc(C(=O)Nc2cc(C)cc(C)c2)c(-n2cnnn2)cc1OC | 14.7
Cc1cc(Br)ccc1NC(=O)C1CCN(C(=O)c2ccco2)CC1 | -19.8
CCOC(=O)Cn1nnc2c(sc3nc4c(c(-c5ccc(Cl)cc5)c32)CCC4)c1=O | -6.78
CCCCC(=O)Nc1ccc(NC(=O)c2ccc(C)c([N+](=O)[O-])c2)cc1OC | -2.74
O=C(CCc1ccccc1)Nc1nncs1 | 15.9
O=C(N/N=C/c1ccncc1)/C(=C/c1ccccc1)NC(=O)c1ccccc1 | -2.14
C=CCN1C(=O)C(O)(CC(=O)c2c(C)n[nH]c2C)c2cc(Br)ccc21 (centres unmarked) | 14.3
O=C(NC(Cc1ccccc1)C(=O)O)/C(=C/c1ccc([N+](=O)[O-])cc1)NC(=O)c1ccccc1Br (centres unmarked) | 3.63
Fc1ccc(C2N3CCCN23)cc1 (centres unmarked) | 11.6
COc1ccccc1N1CCN(CCN2C(=O)C3CCCN3C2=O)CC1 (centres unmarked) | 12
O=C(CCNC(=O)c1ccc(Br)o1)NCc1ccccc1Cl | -2.73
CCNC(=O)CSc1nc2ccccc2c(=O)n1OC | 7.09
COc1cc(-c2nc3c(c(C)nn3-c3ccccc3)c3cc(OC)c(OC)cc23)ccc1O | 6.95

SMILES | hERG current change (%, negative = inhibition) at 10uM [%]
Cc1[nH]c2ccccc2c1/C=N/NC(=S)NC(C)C | 12.1
Cc1cc(F)ccc1S(=O)(=O)N1CCCCC1CCNC(=O)C(=O)NCc1ccccn1 (centres unmarked) | -61.4
CCn1c(SC(C)C(=O)Nc2ccc3c(c2)OCCO3)nnc1C1CC1 (centres unmarked) | 10.7
O=C(CNC(=O)c1ccc(F)cc1)N/N=C/c1ccc(O)c([N+](=O)[O-])c1 | -1.79
CCC(Oc1ccccc1)C(=O)NC1C(=O)N2C1SC(C)(C)C2C(=O)[O-].[K+] (centres unmarked) | 2.88
Cc1cc(Cl)ccc1OCC(=O)NCCOc1nc(N2CCOCC2)nc(N2CCOCC2)n1 | -43.5
COc1ccc(-c2noc(N3CCC(C(=O)NC(C)c4ccccc4)CC3)n2)cc1 (centres unmarked) | -30.6
CN(C(=O)COC(=O)c1nc(Cl)ccc1Cl)c1ccccc1 | 17.6
CC1(C)CC(=O)C(C=NCc2ccc3c(c2)OCO3)=C(O)C1 | 3.48
CCCSc1nc2c(cnn2-c2ccc(C)cc2)c(=O)[nH]1 | 11.5
Cc1ncc(S(=O)(=O)c2ccc(Cl)cc2)c(-c2ccccc2)n1 | -0.432
CCOc1ccc(-n2c(SCC(=O)O)nc3sc4c(c3c2=O)CCCC4)cc1 | 18.5
N#Cc1c(NC(=O)C(=O)NCCCN2CCOCC2)sc2c1CCCC2 | -14.7
O=C(NN1C(=O)NC2(CCCCC2)C1=O)c1ccc(Cl)s1 | 12.9
O=C(CCCn1c(SCC(=O)c2ccc(Cl)cc2)nc2ccccc2c1=O)NCc1ccco1 | 3.21
COC(=O)CP(=O)(c1ccccc1)c1ccccc1 | 15.2
O=C1/C(=C\c2ccco2)CCC/C1=C\c1ccco1 | 2.1
CCOC(=O)c1[nH]c(C)c(C(=O)NCc2cccnc2)c1C | -0.0907
O=c1c(C=Nc2ccc(Oc3ccccc3)cc2)c[nH]n1-c1cccc(Cl)n1 | 5.05
Nc1ccc2oc(CCc3ccccc3)nc2c1 | -4.16
CCOc1ccc(N/C=C/C(=O)c2ccc(C)cc2)c([N+](=O)[O-])c1 | 7.59
CC(C(=O)NC1CCCCCC1)c1ccc([N+](=O)[O-])cc1 (centres unmarked) | 4.76

SMILES | hERG current change (%, negative = inhibition) at 10uM [%]
COc1cccc(NC(=S)N2C3CCCC2CC(NC(=O)C2CC2)C3)c1 (centres unmarked) | 9.08
COCc1cc(C)nc(OCC(=O)N/N=C/c2cc(C)n(-c3c(C)cccc3C)c2C)c1C#N | 2.09
CCOc1ccccc1N(C)C(=O)c1ccc2c(=O)n3c(nc2c1)CCCCC3 | 0.237
CCn1c(CN2CCCCC2)nc2cc(S(=O)(=O)N3CCCCC3)ccc21 | -19
CC(C)CCNC(=O)Cn1c(NCCC(C)C)nc2c1c(=O)n(C)c(=O)n2C | -6.85
COc1ccccc1N1CCN(C(=O)C2CCN(C(=O)c3cccc(Cl)c3)CC2)CC1 | -0.573
COc1ccc(N2CCN(S(=O)(=O)CCNC(=O)C3CCCCC3)CC2)cc1 | 5.98
COCCOc1cc(COC)nc(-c2cccc(C)c2)n1 | 6.85
CC(CN1CCN(C)CC1)OC(=O)c1cccc(Cl)c1.Cl (centres unmarked) | -10.6
Cc1c(CN2CCc3c([nH]c4ccccc34)C2CC(C)C)cnn1C (centres unmarked) | -36
O=C(C1CCCN(Cc2nc(-c3cccs3)no2)C1)N1CCOCC1 (centres unmarked) | 9.96
CC(C)CC(=O)Nc1nc2ccc(S(C)(=O)=O)cc2s1 | 2.14
O=C1CN(C(=O)N[C@@H](Cc2ccccc2)C(=O)N[C@H](C(=O)O)c2ccccc2)c2ccccc2N1 | 18.4
C=CCOc1ccc(/C=C/C(=O)OCC(=O)NCC(=O)Nc2c(C)cc(C)cc2C)cc1 | 4.82
O=C(COC(=O)CCc1ccc(S(=O)(=O)N2CCOCC2)cc1)NCc1ccccc1 | 6.25
COc1ccc(N2CCN(C(=O)C(=O)c3cn(CC(=O)N4CCCCCC4)c4ccccc34)CC2)cc1 | -18.3
CCn1c2c(c3cc(C(=O)O)ccc31)CCCC2=O | 18.5
CC(C)c1ccc(N(CC(=O)N2CCOCC2)S(C)(=O)=O)cc1 | 6.33
C/C(N)=C(/C#N)C(=O)COc1ncnc2ccc(Br)cc12 | 3.99
CCCC1=C/C(=C/c2ccc(-c3ccccc3OC)o2)C(=O)O1 | -7.77
